Laboratory results from the supplement of paper PMC3334620.
Over roughly 33,000 sequences, “E-score (-0.5 to 0.5)” has its median near -0.01; the highest 2% begin near 0.26. Some of the results follow.

What follows are sequences tested against Ste12 (UniProt P13574) (assay: PBM E-score (8-mer binding enrichment) (E-score (-0.5 to 0.5)); higher = stronger / more preferred TF binding; most listed sequences are background and not binding sites). Settings: protein concentration: 200 nM; construct: GST-DNA-binding domain.
Outline: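 Masliner-normalised scans of fluorescent anti-GST signal were the basis for scoring. That signal came from GST-tagged yeast transcription factors applied at about 100-200 nM to double-stranded universal all-10-mer Agilent arrays on fresh or once-stripped slides. Each ungapped eight-base word, pooled with its reverse complement, received an E-score from the Universal PBM Analysis Suite.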

Sequence	PBM E-score
GAGATCAA	0.0814
AAGACCAT	0.0895
CCGGGACC	0.0129
ATGTTTCA	0.493
GAAGGGAC	-0.0933
AAAGACGA	0.0361
GGATCGCC	-0.161
GACAGGTA	-0.016
AGGGAGAG	-0.0217
GGATCAAA	0.119
GGCTACAC	-0.101
AATTTTCG	0.128
AGGACAAG	-0.131
ACAAGTAC	0.02
CACAGCAC	-0.191
CCTTGGTA	0.00972
CATTGAGG	-0.103
AGCACTAA	-0.0166
AGGTAGGC	-0.159
CACGTCGA	-0.0263
AACGCTAA	-0.0143
CTTTGGTC	0.131
CGGGATTC	0.191
CTAAATCC	0.0716
GCTTGTAA	0.0486

Sequence	PBM E-score
ATCCATGG	-0.059
AGTTCTCC	-0.165
AATATTTA	0.209
ATGCACTG	-0.0247
CTAAAAAG	0.218
CAGTGTCG	0.0375
GCCAAGGC	-0.198
AAATTCGA	0.157
GGCATTGA	-0.0352
AGATCGAC	-0.078
TCCACACA	0.134
GCAGTCAA	-0.127
AGCTGGGC	-0.161
AGCGGAAT	0.0289
CGAACGCC	-0.222
GATCATTA	0.0818
CCAAATGA	0.186
CACGATAG	-0.11
ACACGGTC	-0.0854
AGTTACAG	0.2
CCAACACC	-0.241
AAAGTGTG	0.221
AAAACTCC	0.0428
GTCGTAAA	0.0308
CGTATAGC	-0.0307

Sequence	PBM E-score
AGAACAAT	0.247
CACTACTC	0.105
ATTGGGAG	0.0972
ACCAAAGA	0.158
TAGCAATA	-0.0246
GCATATCC	-0.0226
CGTCCAGA	-0.115
CAAAGATA	0.107
TACTACCA	-0.0454
ACGTGTAC	-0.134
AGTATAAT	0.228
CTCGCCGA	-0.0805
ATCGGATC	0.0882
AGGCGTTA	0.0338
CAATCCAA	0.00782
CCGTGCAG	0.0505
GACTACTC	-0.0788
GAAGCACC	-0.164
ATCTTGCA	0.102
CCGGACAC	-0.0146
AATGACGA	-0.105
AGCGCTCA	-0.203
CCTTGTCA	-0.0771
AAATGTGA	0.146
CCTGAATA	0.177

Sequence	PBM E-score
CACACAGC	0.00497
AATATTGC	0.00435
CATAATAA	0.136
AATTGCGT	0.113
AGATACTG	-0.0238
ACTCTCAC	0.0198
AGACGGAT	0.0635
ATAGAAAA	0.101
AAGCCGCT	0.0327
CAGAGGCA	-0.161
ACCGTATA	-0.133
AGAGCAGA	-0.0287
ATATGTAC	0.0709
CGCGCACC	0.156
CGAATTCG	-0.27
GAACGCGA	0.103
AAGCTTGC	-0.0199
GGACGCTA	-0.185
ACCGCGAC	0.225
CCGTAGAA	-0.259
GGCCCATA	-0.122
GCTCAAGC	-0.184
TTAAGAAA	0.195
AAAAATAA	0.229
CACGTGGG	-0.129

Sequence	PBM E-score
AGAAAATA	0.259
CCCGGTCC	-0.152
ATTCCCGG	0.115
ACAGCGAC	-0.0562
AGGTAGAG	-0.0159
CGGCAGTA	-0.0367
TGGCCCCA	-0.094
ACTTGGGC	-0.0134
CCTAAGAG	-0.0981
AGAGAACC	-0.168
AAATCTTC	0.0263
GAATTCCA	0.122
TCCCAGGA	-0.198
GATAGAAA	0.0543
ATACGGAA	0.0484
CTAGATAG	-0.243
ACCTGCCT	-0.137
CCGATCGA	0.0564
AGTCACGC	-0.0621
AACTATTC	0.264
ACTCCACC	-0.0218
GGTGGTCA	-0.164
TGTGGAAA	0.286
ATCTTTTC	0.149
AGGCAGAG	-0.137

Sequence	PBM E-score
CCCTATTC	0.0347
AGGAGCCG	-0.135
ATTCCCGC	0.158
CCCGCTGA	-0.173
ACATAGCC	0.0232
AGAGAACA	0.0103
AAGGGGCC	-0.0465
CTGGCCAA	-0.0761
CGGCTATC	-0.174
GTTATCGA	0.203
ACTTAAAA	0.183
ATGCGCGC	0.0609
ACGGTTGC	-0.234
GTATCAAA	0.293
CCTTGGCA	-0.162
CACATTCC	-0.00353
CCCATAGG	-0.272
ACGGGAGT	-0.0255
AAGCCCTA	-0.133
CTTAACAC	-0.183
CCCTGCAA	-0.124
CAAGCGTA	-0.216
CACCTCGC	-0.139
AGTTATTG	0.034
CGCATCTA	0.112

Sequence	PBM E-score
CATGTCCC	-0.00788
AAATTATG	0.168
AGAAGTAA	0.22
ATTCTGTA	0.0407
CGACACCC	-0.0454
ACCCGCTA	0.146
GAGGTACC	-0.18
AAGTGGTC	-0.0758
CTGCCATC	-0.0221
AATCAGTG	-0.123
AATGATGC	0.039
AGCAAAAC	0.199
AGCGGATC	0.0284
AGTTTGGG	0.13
CGGATTGA	-0.0328
AACGTGAC	0.0775
CGGTAGAA	-0.142
ATTGACGG	0.00717
GATCAGCC	-0.151
TGCAATAA	0.0549
CCGTTAAG	-0.177
CTTGTAAC	0.218
AGGTTACG	-0.0449
CTCGAGTA	0.0434
AGAGGTCG	-0.112

Sequence	PBM E-score
AGCTTTTC	-0.121
CGGAGGTA	-0.0544
ATGCTTTA	-0.0956
TCCTGCGA	-0.0589
GGCGCGCA	0.183
TCGAAACA	0.395
CTTCCAGC	-0.215
CTCCTCAG	-0.11
TCCGTCGA	0.16
GTCATCGA	-0.173
CAGGGGCC	-0.274
ACTCGAGA	0.0621
GCGGGCAC	0.0726
CTATAAGA	0.0602
GCCCTTAC	-0.176
ACCACCAG	-0.0336
ACCTGGGA	0.0779
CAGTTTAA	0.131
CTGACATC	0.123
ATTTCAGC	0.13
CTTTTGGC	-0.0551
AATGCAAC	0.0238
TAATTCGA	0.179
ATACTTAA	0.166
TACGAGGA	0.0797

Sequence	PBM E-score
AATACTTA	0.141
CCGCAGTA	-0.0759
ACATTAGT	-0.0436
GTAAGCAA	-0.0558
ACTATAAG	0.00946
GAGGTGGC	-0.132
GCCCCCAA	-0.0804
ACATTGGT	-0.115
GGTAGAAC	-0.101
ATGTGGGG	-0.0488
AGCTGTAG	-0.0286
CGACCGCA	-0.0229
AATGACTA	-0.0904
AAGATGAT	-0.0474
GACACGAC	0.0724
CCTCGCTC	0.0357
TGGTTCAA	0.247
ACGTGACT	-0.14
CCTAGCAA	0.00643
